In ChEMBL document CHEMBL4888484, “Replenishing the malaria drug discovery pipeline: Screening and hit evaluation of the MMV Hit Generation Library 1 (HGL1) against asexual blood stage Plasmodium falciparum ,using a nano luciferase reporter read-out” (2022):
Out of some 4,800 compounds screened, about 410 (8.5%) showed an effect of 50% or more. The list shows a part of the results.

System: Plasmodium falciparum
Experiment: Confirmatory screen in NF54 pLDH assay, in single point, at 2uM, 72h
Format: functional, Erythrocyte
Conditions: timepoint 72 hour

SMILES	% Inhibition [%]
Cn1cc(Br)c(C(=O)N2c3ccnn3C(C(F)(F)F)CC2c2ccccc2)n1 (configuration not stated)	10
Cc1cc(C)c2c(C(=O)N3CCN(C(=O)[C@H](C)O)CC3)cc(C3CC3)nc2c1	-11
CCOC(=O)c1nc[nH]c1-n1nc(C)cc1C	7
CCn1cc(S(=O)(=O)N2CC(Oc3cccc(-c4nc(C)no4)c3)C2)cn1	7
CCn1cc(C(=O)Nc2ccc(C(=O)N3CCCCC3)cc2)cn1	5
C[N+]12CCCCC1C(OC(=O)C1(c3ccccc3)CCCC1)CCC2 (configuration not stated)	60
COc1cccc(-c2cc(C(=O)Nc3cc(Cl)ccc3C)c3c(C)nn(C)c3n2)c1	-12
Cc1cc(C)n(C(=O)Cn2nc(C(F)F)cc2C)n1	11
Cc1ccc(-n2nc(N3CCN(C(=O)Cc4ccc(F)cc4)CC3)ccc2=O)cc1	9
COC(=O)c1ncn2c1C(=O)N(Cc1ccccc1OC)[C@](C)(C(=O)NC1CCCCC1)C2	11
COc1ccc2cccc(NC(=O)c3cc(-c4cc(OC)c(OC)c(OC)c4)n[nH]3)c2n1	51
CC1(C2CCN(C(=O)c3c(Cl)cccc3Cl)CC2)OCCO1	4
COc1ccc(C(=O)Nc2ccc3c(c2)C(=O)Nc2cccnc2O3)cc1OC	26
c1ccc(C2(c3nnc(-c4ccncc4)o3)CCOCC2)cc1	4
Cc1c(S(=O)(=O)NCCn2nc(C(F)(F)F)cc2C)cnn1C	8
COCCCC(=O)Nc1cc(C)c(Br)cn1	8
CCCN1Cc2cccc(NS(=O)(=O)c3cc(C)ccc3Br)c2C1	5
O=C(NCCC1=CCCCC1)c1c(-c2ccccc2)nc2n1CCS2(=O)=O	-1
CC(C)[C@H](CN1CCOCC1)NC(=O)c1ncccn1	-1
CC(C)[C@@H]1CCc2ccccc2N1Cc1nc(N)nc(N(C)C)n1	6
CC1(C)CCc2ccccc2C1NC(=O)C1CC(=O)N(c2nccs2)C1 (configuration not stated)	-6
CCc1ccccc1C(=O)NC[C@H]1CC[C@H](CN)CC1	6
CCOc1cc(Cl)c(Cl)c(C#N)c1OC(C)=O	6

SMILES	% Inhibition [%]
O=C(Nc1ccccc1)c1ccc(Nc2ncc(-c3cccc(F)c3)cn2)cc1	-10
COc1ccc(CCNC(=O)c2cnn3c4c(cnc23)C[C@@H](C)CC4)cc1OC	4
N#CC1(c2ccccc2)c2ccccc2C(=O)c2ccccc21	-4
COCC[C@](C)(O)CNC(=O)Nc1ccccc1	5
CCCc1nc(CNc2cccc3c2N(C(C)=O)CC3)no1	-17
Cc1ccc(Cc2nc(N3CCCN(C(=O)CCc4ccccc4)CC3)c3cnn(-c4ccccc4)c3n2)cc1	10
Cc1ccn(-c2ccc(C(=O)NC3CCCC3)cn2)n1	-9
CC(C)(C)n1ncc2c1NC(=O)C[C@@H]2c1c(F)cccc1Cl	-19
CCN1C(=O)C[C@H](C(=O)Nc2cnc3ccccc3c2)[C@H]1c1nccn1CC	-7
COc1cc(-c2nc3ccccc3s2)ccc1OCc1cccc2ccccc12	0
Cc1c(Cl)cccc1C(=O)N1CCC[C@H](Cn2cncn2)C1	1
[O-]/[N+](=C\c1ccncc1)Cc1ccccc1	-11
C=CCOc1ccc(CN(C)S(=O)(=O)CC#N)cc1	9
CC(C)=C(F)C(=O)N1CC[C@H](CO)C[C@@H]1C	6
CCn1nccc1CNc1cc(Cl)cc2c1OCC2	-22
Cc1cccn2cc(CN(C)[C@H](c3ccccn3)C3CC3)nc12	4
CN1CCN(c2nc(O)c3c(n2)NC(=O)C[C@H]3c2c(F)cccc2F)CC1	0
Nc1c(-c2ccc(F)cc2)cnc2cc(-c3ccc(Cl)c(Cl)c3)nn12	12
O=C(CC1CCOCC1)NCc1ccccn1	-24
C[C@@H](C1CC1)N(C1CC1)S(=O)(=O)c1ccc(F)cc1F	4
CC1Cc2cc(-c3ccc(CNC(=O)C(C)(O)C4CC4)cc3)ccc2O1 (configuration not stated)	6
O=C(NS(=O)(=O)C1CCOCC1)c1csc(-c2ccco2)n1	-10
Cc1ccc(CC(=O)N2C[C@H](c3ccccc3)C(c3ccc(Cl)cc3)=N2)cc1	9

SMILES	% Inhibition [%]
CC[C@@H](CO)NCc1ccc(OC)cc1OC	4
N=C1CCCN1c1c(Cl)cccc1Cl	5
Cc1cccc(N2CCN(C(=O)CN3CCN(Cc4ccc(Cl)cc4)C3=O)C[C@@H]2C)c1	-6
Cc1ccsc1CN(C(=O)c1cccc[n+]1[O-])C(C)C	5
CCc1n[nH]c(=O)c(C(=O)Nc2cnc3[nH]nc(C)c3c2)c1CC	7
Nc1nonc1C(=O)N1CCN(C(=O)Nc2cccc(F)c2)CC1	-21
COc1ccc(OC)c(CNC(=O)c2ccc(Nc3ncc(-c4cccc(F)c4)cn3)cc2)c1	-4
Cc1nn(-c2ncc(C(F)(F)F)cc2Cl)c(=O)n1-c1cccc(Cl)c1	7
CCC(=O)N1CCN(c2nc3c(s2)C[C@@H](C(=O)Nc2cccc(Cl)c2)CC3)CC1	-23
COc1cc(F)c([C@H](C)NC(=O)N(C)Cc2ccco2)cc1OC	-1
Cc1nsc2ncn(C[C@H](O)COCc3ccco3)c(=O)c12	8
Clc1ccc(Cl)c(-c2ccc(CNCCOc3ccccn3)o2)c1	11
O=C(c1ccc(COc2ccc(Cl)cc2Cl)cc1)n1cc(Br)cn1	3
COCCOc1ccc2c(n1)CCN(C(=O)c1ccc(OC)cc1)C2	-8
COc1ccc(-n2nnnc2C2(N3CCOCC3)CCCC2)cc1OC	3
CN(CC(F)(F)F)S(=O)(=O)c1ccc(C(=O)O)cc1	4
CC[C@H](Nc1ccc(Cl)c(NC(C)=O)c1)C(=O)OC	-8
O=C(CN1CCC[C@H](O)C1)N(C1CCCCC1)C1CCCCC1	10
c1ccc2c(c1)ccc1oc(-c3ccn[nH]3)cc12	-3
Cc1cc(C(=O)N[C@H]2CCS(=O)(=O)C2)nc(N(C)C)n1	2
COc1cc(C(=O)Nc2scnc2C)cc(OC)c1OC	7
